{"source": "PubChem BioAssay AID1768", "about": "(National Center for Advancing Translational Sciences (NCATS), 2009)", "note": "Out of some 270,000 compounds screened, about 620 (0.23%) were called active. The shares of active, inactive and inconclusive entries below differ from those in the screen. Calls come from the whole dose curve; as a rule, active = well fitted inhibition curve with a large enough effect in the polarisation, with a control signal flat (not every such curve was filed as active); inconclusive = small, poorly fitted or top-dose-only effect, or effect the other way, or a change in a side signal; inactive = no such curve, though single readings can be large or run the other way; the % refers to the polarisation. Potencies beside an inconclusive call are fits to weak or partial responses and may not hold up. “Side channel” marks fits to a control or component signal instead of the main read-out. Potency is the fitted concentration of half-maximal effect; tags give direction and shape of the fitted curve or compound fluorescence and quenching."}
{"molecular_target": "Menin (Homo sapiens) (UniProt O00255)", "sequence (O00255 whole entry, looked up)": "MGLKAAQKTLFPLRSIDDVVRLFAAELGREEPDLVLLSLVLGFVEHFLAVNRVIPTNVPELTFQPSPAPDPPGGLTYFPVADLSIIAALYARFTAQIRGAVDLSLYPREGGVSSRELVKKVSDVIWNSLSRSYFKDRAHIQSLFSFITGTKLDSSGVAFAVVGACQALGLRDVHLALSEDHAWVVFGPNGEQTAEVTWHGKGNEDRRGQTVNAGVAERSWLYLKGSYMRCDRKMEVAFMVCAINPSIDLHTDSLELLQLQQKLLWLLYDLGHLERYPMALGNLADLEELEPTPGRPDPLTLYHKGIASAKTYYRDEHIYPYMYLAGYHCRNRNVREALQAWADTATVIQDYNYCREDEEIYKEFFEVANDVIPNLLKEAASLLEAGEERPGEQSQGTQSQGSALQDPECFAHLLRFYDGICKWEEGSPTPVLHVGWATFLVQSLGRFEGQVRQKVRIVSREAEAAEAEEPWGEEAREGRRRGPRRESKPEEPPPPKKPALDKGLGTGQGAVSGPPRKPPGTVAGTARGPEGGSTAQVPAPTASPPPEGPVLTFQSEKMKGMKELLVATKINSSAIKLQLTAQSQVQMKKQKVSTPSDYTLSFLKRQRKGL", "test": "qHTS Assay for Inhibitors Targeting the Menin-MLL Interaction in MLL Related Leukemias: Competition With Texas Red Labeled MLL-derived Mutant Peptide", "conditions": "fluorescence polarization; series mostly up to 61.6 µM"}
{"smiles": "Cc1sc2ncn(CC(=O)NCCCC(=O)N3CCN(c4ccccn4)CC3)c(=O)c2c1C", "Potency": "inconclusive: 10 µM [inhibitor, partial curve]"}
{"smiles": "N#C/C(=C(/O)c1ccc(-c2cccc([N+](=O)[O-])c2)o1)c1nc2ccccc2s1", "Potency": "inconclusive: 10 µM [quencher, side channel, partial curve]"}
{"smiles": "O=C(Nc1cccc(O)c1)c1c(O)c2ccccc2[nH]c1=O", "Potency": "inconclusive: 12.6 µM [quencher, side channel, partial curve]"}
{"smiles": "COc1cc(/C=C2/C(=O)NN(c3cccc(Cl)c3)C2=O)cc(OC)c1O", "Potency": "inconclusive: 20 µM [quencher, side channel, single point]"}
{"smiles": "O=C(Nc1ccc(NC(=O)C23CC4CC(CC(C4)C2)C3)cn1)c1ccco1", "Potency": "inconclusive: 31.6 µM [inhibitor, single point]"}
{"smiles": "CCc1ccc(NC(=O)c2ccc(OC)c([N+](=O)[O-])c2)cc1", "Potency": "inconclusive: 39.8 µM [quencher, side channel, single point]"}
{"smiles": "O=C(Nc1ccccc1)NC1CCCc2ccccc21", "note": "(configuration not stated)", "Potency": "inconclusive: 28.2 µM [inhibitor, single point]"}
{"smiles": "COC(=O)c1[nH]c2ccccc2c1NS(=O)(=O)c1ccc(F)c(C)c1", "Potency": "inconclusive: 10 µM [quencher, side channel, partial curve]"}
{"smiles": "C=CCn1c(Sc2nc(C)cs2)nc2c1c(=O)[nH]c(=O)n2C", "Potency": "inconclusive: 39.8 µM [inhibitor, single point]"}
{"smiles": "C=CCn1c(-c2ccc(C)cc2)nc2ccccc21", "Potency": "inactive"}
{"smiles": "O=C(Cn1c(=O)sc2ccccc21)Nc1ccc(O)cc1", "Potency": "inconclusive: 25.1 µM [quencher, side channel, single point]"}
{"smiles": "O=[N+]([O-])c1cnccc1NC1CCCCC1", "Potency": "inconclusive: 0.631 µM [inhibitor, full curve, poor fit]"}
{"smiles": "CCOC(=O)C1(Cc2ccccc2)CCCN(C2CCN(C(C)=O)CC2)C1", "note": "(configuration not stated)", "Potency": "inconclusive: 31.6 µM [fluorescent, side channel, single point]"}
{"smiles": "CCCCCOc1ccc(/C=c2\\sc3nc(=O)c(-c4ccccc4)nn3c2=O)cc1OC", "Potency": "inconclusive: 10 µM [quencher, side channel, partial curve]"}
{"smiles": "O=C(Nc1nccs1)c1ccc(Br)c(S(=O)(=O)N2CCCC2)c1", "Potency": "inconclusive: 22.4 µM [quencher, side channel, single point]"}
{"smiles": "O=C(Nc1ccc(-c2nc3c(ccc4ccccc43)o2)cc1)c1ccco1", "Potency": "inconclusive: 7.08 µM [quencher, side channel, full curve]"}
{"smiles": "O=C(N/N=C/c1ccccn1)c1cc(-c2ccc(Cl)cc2)nc2ccccc12", "Potency": "inconclusive: 17.8 µM [quencher, side channel, single point]"}
{"smiles": "COc1ccc(-c2sc3ccc(OC)cc3c2C#CCCO)cc1", "Potency": "inconclusive: 28.2 µM [quencher, side channel, single point]"}
{"smiles": "O=C(O)c1ccccc1C(=O)N1N=C2/C(=C/c3cccc([N+](=O)[O-])c3)CCCC2C1c1cccc([N+](=O)[O-])c1", "note": "(configuration not stated)", "Potency": "inconclusive: 25.1 µM [quencher, side channel, single point]"}
{"smiles": "CCN1CCN(CC(=O)Nc2c(OC)cccc2OC)CC1", "Potency": "inactive"}
{"smiles": "Cc1ccc(CN2CN(S(=O)(=O)c3cccs3)c3nc4ccccc4nc32)cc1", "Potency": "inconclusive: 39.8 µM [quencher, side channel, single point]"}
{"smiles": "N#C/C(=C\\c1ccco1)Sc1nc2ccccc2s1", "Potency": "inconclusive: 17.8 µM [quencher, side channel, partial curve]"}
{"smiles": "COc1ccc(C2(CCN=Cc3ccc(N(C)C)cc3)CCOC(C)(C)C2)cc1", "note": "(configuration not stated)", "Potency": "inconclusive: 12.6 µM [fluorescent, side channel, partial curve]"}
{"smiles": "O=C(NCCc1c[nH]c2ccccc12)C1CCCN(S(=O)(=O)c2ccccc2)C1", "note": "(configuration not stated)", "Potency": "inconclusive: 6.31 µM [fluorescent, single point]"}
{"smiles": "Cc1cc(NC(=O)c2ccc3c(c2)OCCO3)ccc1NC(=O)c1ccco1", "Potency": "inconclusive: 39.8 µM [fluorescent, side channel, single point]"}
{"smiles": "Cc1ccc(-c2csc(N/N=C/C=C/c3ccccc3)n2)cc1", "Potency": "inconclusive: 12.6 µM [quencher, partial curve]"}
{"smiles": "O=C(/C=C/c1ccc2c(c1)OCO2)Nc1nc(-c2ccc(F)cc2F)cs1", "Potency": "inconclusive: 39.8 µM [inhibitor, single point]"}
{"smiles": "CN(C)C(=O)CSc1cccc2cccnc12", "Potency": "inactive"}
{"smiles": "Nc1ccc(N=Nc2ccccc2Cl)c(N)n1", "Potency": "inconclusive: 20 µM [quencher, side channel, partial curve]"}
{"smiles": "CC(C)CNC(=S)N(Cc1ccco1)Cc1cc2cc3c(cc2[nH]c1=O)OCCO3", "Potency": "inactive"}
{"smiles": "CCCC(NC(=O)C(C)NC(=O)CO/N=C1\\C=C2CCC3C4CCC(C(C)=O)[C@@]4(C)CCC3[C@@]2(C)CC1)C(=O)O", "note": "(some centres not stated)", "Potency": "inconclusive: 5.62 µM [inhibitor, full curve]"}
{"smiles": "O=C1CCNc2cc3ccccc3cc21", "Potency": "inconclusive: 12.6 µM [quencher, side channel, partial curve]"}
{"smiles": "COc1ccc(-c2[nH]c(-c3ccc(Cl)cc3)nc2SCC(=O)Nc2nccs2)cc1", "Potency": "inconclusive: 3.98 µM [quencher, side channel, partial curve]"}
{"smiles": "COc1ccc(/C=N/Nc2ccc(C(=O)O)cc2)cc1Br", "Potency": "inconclusive: 25.1 µM [quencher, side channel, partial curve]"}
{"smiles": "Cc1cc(C)n2nc(SCc3nnc(-c4ccccc4Br)o3)nc2n1", "Potency": "inactive"}
{"smiles": "Cc1[nH]n(C(N)=S)c(=O)c1N=Nc1cc(C(F)(F)F)ccc1Cl", "Potency": "inconclusive: 14.1 µM [quencher, side channel, partial curve]"}
{"smiles": "COc1ccc(NC(=O)CSc2nc3c(c(=O)n2-c2ccc(F)cc2)SCC3)c(OC)c1", "Potency": "inconclusive: 15.8 µM [inhibitor, partial curve]"}
